In the antibiotic and cytotoxicity screens of Wong et al. (2023) one finds cytotoxicity call and growth inhibition call data, which are given here for 25 compounds.

Molecules are shown by their SMILES. The list shows a part of the results.

For one test, the system named is HSkMC. Nature of the test: cytotoxicity call (relative viability < 0.9). The conditions noted are these: 10 µM.
Another test concerns HepG2. Put plainly: cytotoxicity call (relative viability < 0.9). To be noted: 10 µM.
Another test relates to S. aureus RN4220. Nature of the test: growth inhibition call (relative growth <= 0.2). The conditions noted are these: 50 µM.

With `C[C@@H]1CCCCO[C@H](CN(C)Cc2ccccc2)[C@H](C)CN([C@H](C)CO)C(=O)c2cc(NC(=O)c3ccncc3)ccc2O1`, the cytotoxicity call in the test on HSkMC and in the test with HepG2 was “inactive” in each case. Besides, the growth inhibition call in the test on S. aureus RN4220 is “inactive”.

`COCC(=O)Nc1ccc2c(c1)C(=O)N(C)C[C@@H](OC)[C@H](C)CN(Cc1cccc(F)c1)[C@H](C)CO2`: the cytotoxicity call in the test with HSkMC and in the test with HepG2 was “inactive” throughout. In addition, the growth inhibition call in the test on S. aureus RN4220 was “inactive”.

For the compound `Cc1noc(C)c1S(=O)(=O)N(C)C[C@H]1OCc2cnnn2CCCC(=O)N([C@@H](C)CO)C[C@H]1C`, the cytotoxicity call in the test on HSkMC and with HepG2 was “inactive” throughout. Moreover, the growth inhibition call with S. aureus RN4220 was “inactive”.

As to `C[C@H](O)C#Cc1ccc2c(c1)O[C@@H](CN(C)C)[C@H](C)CN([C@H](C)CO)S2(=O)=O`, the cytotoxicity call in the test with HSkMC and with HepG2 was “inactive” throughout. For the same compound, the growth inhibition call with S. aureus RN4220 is “inactive”.

Regarding `CC(=O)N[C@H]1CC[C@@H](CCNC(=O)C2CC2)O[C@@H]1CO`, the cytotoxicity call in the test on HSkMC and in the test with HepG2 was “inactive” in each case. In addition, in the test with S. aureus RN4220, the growth inhibition call is “inactive”.

In the case of `C[C@@H]1CN([C@H](C)CO)C(=O)c2cccc(NS(C)(=O)=O)c2O[C@H]1CN(C)C(=O)Nc1ccc(F)cc1`, the cytotoxicity call in the test with HSkMC and in the test on HepG2 was “inactive” in each case. Moreover, the growth inhibition call in the test with S. aureus RN4220 is “inactive”.

Turning to `C[C@H](CO)N1C[C@H](C)[C@@H](CN(C)S(C)(=O)=O)Oc2c(NC(=O)c3ccc(-c4nccs4)cc3)cccc2C1=O`, the cytotoxicity call with HSkMC and in the test with HepG2 was “inactive” throughout. Moreover, in the test with S. aureus RN4220, the growth inhibition call was “inactive”.

With `COc1ccc(NC(=O)Nc2ccc3c(c2)C(=O)N([C@H](C)CO)C[C@H](C)[C@@H](CN(C)Cc2ccc(C(=O)O)cc2)OCCCC[C@@H](C)O3)cc1`, the cytotoxicity call in the test on HSkMC and with HepG2 was “inactive” throughout. Moreover, in the test on S. aureus RN4220, the growth inhibition call was “inactive”.

As to `Cc1n[nH]c(C)c1CC(=O)O`, the cytotoxicity call in the test on HSkMC and in the test on HepG2 was “inactive” throughout. Also, the growth inhibition call with S. aureus RN4220 was “inactive”.

As for `COc1ccc(NC(=O)Nc2ccc3c(c2)C(=O)N([C@@H](C)CO)C[C@@H](C)[C@H](CN(C)S(=O)(=O)c2ccc(OC)cc2)OCCCC[C@@H](C)O3)cc1`, the cytotoxicity call with HSkMC and with HepG2 was “inactive” each time. In addition, the growth inhibition call with S. aureus RN4220 was “inactive”.

For the compound `C[C@H](CO)N1C[C@H](C)[C@@H](CN(C)C(=O)NC2CCCCC2)Oc2c(NC(=O)c3cnccn3)cccc2C1=O`, the cytotoxicity call with HSkMC and in the test on HepG2 was “inactive” in each case. Moreover, the growth inhibition call in the test with S. aureus RN4220 is “inactive”.

Turning to `COc1ccc(S(=O)(=O)N(C)C[C@@H]2OCCCC[C@H](C)Oc3ccc(NC(=O)Nc4ccc(F)cc4)cc3C(=O)N([C@H](C)CO)C[C@H]2C)cc1`, the cytotoxicity call with HSkMC and in the test with HepG2 was “inactive” each time. The growth inhibition call in the test with S. aureus RN4220 is “inactive”.

As for `C[C@@H]1CN([C@H](C)CO)C(=O)c2cc(NC(=O)Cc3ccccc3)ccc2O[C@H]1CN(C)Cc1ccc(C(F)(F)F)cc1`, the cytotoxicity call with HSkMC and in the test with HepG2 was “inactive” throughout. In addition, the growth inhibition call with S. aureus RN4220 was “inactive”.

`O=C(C1CC1)N1CCCN(C(=O)C2CC2)CC1`: the cytotoxicity call in the test on HSkMC and in the test with HepG2 was “inactive” throughout. For the same compound, the growth inhibition call in the test with S. aureus RN4220 is “inactive”.

Regarding `COc1ccc(NC(=O)N(C)C[C@@H]2OCCCC[C@H](C)Oc3ccc(NC(=O)NC4CCCCC4)cc3C(=O)N([C@H](C)CO)C[C@@H]2C)cc1`, the cytotoxicity call in the test with HSkMC and with HepG2 was “inactive” throughout. For the same compound, the growth inhibition call in the test on S. aureus RN4220 was “inactive”.

Regarding `C[C@@H]1CN([C@@H](C)CO)C(=O)c2cc(NC(=O)Nc3ccc(C(F)(F)F)cc3)ccc2O[C@@H](C)CCCCO[C@H]1CN(C)Cc1ccc(Cl)c(Cl)c1`, the cytotoxicity call in the test on HSkMC and in the test with HepG2 was “inactive” throughout. The growth inhibition call with S. aureus RN4220 was “inactive”.

For the compound `C[C@@H]1CCCCO[C@H](CN(C)C(=O)Nc2ccc3c(c2)OCO3)[C@@H](C)CN([C@@H](C)CO)C(=O)c2cc(NC(=O)Cc3ccccc3)ccc2O1`, the cytotoxicity call in the test on HSkMC and with HepG2 was “inactive” in each case. The growth inhibition call in the test on S. aureus RN4220 was “inactive”.

Consider `Cc1ccc(CNS(=O)(=O)N(C)C)cc1`, for which the cytotoxicity call with HSkMC and in the test on HepG2 was “inactive” in each case. Further, the growth inhibition call with S. aureus RN4220 was “inactive”.

As for `CN(C)CC(=O)N[C@H]1C=C[C@H](CC(=O)O)O[C@@H]1CO`, the cytotoxicity call with HSkMC and with HepG2 was “inactive” throughout. Moreover, the growth inhibition call in the test on S. aureus RN4220 was “inactive”.

As for `C=CCC[C@@H](Cc1ccc(F)cc1)C(=O)OC[C@H](Cc1c[nH]c2ccccc12)NC(=O)[C@@H](CC=C)CC(=O)N[C@@H](CO)Cc1ccccc1`, in the test on HSkMC, the cytotoxicity call is “inactive”. Further, the cytotoxicity call with HepG2 was “active”. Further, in the test with S. aureus RN4220, the growth inhibition call is “inactive”.

In the case of `C[C@@H]1CCCCO[C@@H](CN(C)C(=O)NC2CCCCC2)[C@H](C)CN([C@@H](C)CO)C(=O)c2cc(NC(=O)Nc3ccc4c(c3)OCO4)ccc2O1`, the cytotoxicity call in the test with HSkMC and in the test on HepG2 was “inactive” in each case. Moreover, the growth inhibition call with S. aureus RN4220 was “inactive”.

Turning to `COc1ccccc1CNC(=O)C[C@@H]1C[C@H]2c3cc(NC(=O)Nc4ccc(C(F)(F)F)cc4)ccc3O[C@H]2[C@H](CO)O1`, the cytotoxicity call in the test with HSkMC and in the test on HepG2 was “inactive” throughout. Further, the growth inhibition call in the test with S. aureus RN4220 was “inactive”.

Regarding `O=C(C[C@@H]1CC[C@@H](NC(=O)Cc2ccccn2)[C@@H](CO)O1)NCCCN1CCOCC1`, the cytotoxicity call with HSkMC and in the test with HepG2 was “inactive” in each case. Besides, the growth inhibition call with S. aureus RN4220 is “inactive”.

`Cc1ccc(S(=O)(=O)N(C)C[C@@H]2Oc3c(NC(=O)c4cc(C)nn4C)cccc3C(=O)N([C@H](C)CO)C[C@@H]2C)cc1`: the cytotoxicity call in the test on HSkMC (human skeletal muscle cells) and with HepG2 was “inactive” in each case. The growth inhibition call with S. aureus RN4220 is “inactive”.

For the compound `C[C@H](CO)N1C[C@H](C)[C@H](CN(C)C(=O)c2cc(-c3ccccc3)on2)OCc2cnnn2CCCC1=O`, the cytotoxicity call in the test with HSkMC and in the test with HepG2 was “inactive” throughout. Also, in the test with S. aureus RN4220, the growth inhibition call is “inactive”.
